We go through 94 sequences from the supplement of paper PMC3334620.

Whole data set: some 33,000 sequences, median “E-score (-0.5 to 0.5)” near -0.036, cut for the highest 2% near 0.37. This is one part of the list.

This assay addresses T1, Yer064c (UniProt P40041).
T1 sequence: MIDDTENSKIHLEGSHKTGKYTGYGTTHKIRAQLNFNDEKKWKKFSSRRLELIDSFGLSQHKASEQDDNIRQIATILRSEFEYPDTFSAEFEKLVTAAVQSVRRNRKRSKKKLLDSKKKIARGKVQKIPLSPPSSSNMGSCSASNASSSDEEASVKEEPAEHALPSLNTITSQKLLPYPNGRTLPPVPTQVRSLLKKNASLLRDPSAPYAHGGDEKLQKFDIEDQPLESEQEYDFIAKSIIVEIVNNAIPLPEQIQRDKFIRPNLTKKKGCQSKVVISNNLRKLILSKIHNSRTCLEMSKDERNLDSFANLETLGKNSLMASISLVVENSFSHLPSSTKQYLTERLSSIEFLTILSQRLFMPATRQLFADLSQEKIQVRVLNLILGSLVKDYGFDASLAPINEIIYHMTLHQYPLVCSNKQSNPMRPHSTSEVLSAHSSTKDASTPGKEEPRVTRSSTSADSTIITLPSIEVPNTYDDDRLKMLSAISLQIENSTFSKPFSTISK
Description: PBM E-score (8-mer binding enrichment) (E-score (-0.5 to 0.5)); higher = stronger / more preferred TF binding; most listed sequences are background and not binding sites. The following applies: protein concentration: 200 nM; construct: GST-full length. The essentials:
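Bound GST-tagged yeast transcription factors, applied at about 100-200 nM to double-stranded universal all-10-mer Agilent arrays, were detected with fluorescent anti-GST. Scans were normalised with masliner. A modified Wilcoxon-Mann-Whitney statistic, the E-score, was assigned to each ungapped eight-base word pooled with its reverse complement by the Universal PBM Analysis Suite.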
On to CGAAATCC, for which the “PBM E-score” value is -0.158. Consider CGCTAACA, for which the “PBM E-score” value was -0.0316. For CGAGTATA, the “PBM E-score” value is 0.0439.

As for ACATATGC, the “PBM E-score” value was -0.144. Take ATATTTTA: the “PBM E-score” value came to 0.0625. To TCTTGCAA belongs 0.0602.

In the case of ATCAGTAG, the “PBM E-score” value worked out at 0.242. For ATCCGACC, the “PBM E-score” value is -0.0508.

With AGGTAAAG, the “PBM E-score” value was -0.00367.

On to ACCCCATC, for which the “PBM E-score” value is -0.0645. Consider ACAGTTGA, for which the “PBM E-score” value was 0.0659. As to CATGGACC, the “PBM E-score” value was -0.185. As for ACTGCGCA, the “PBM E-score” value came out at 0.0561. As for AATTACTG, the figure is -0.0389.

Turning to CCCATAAC, the “PBM E-score” value was -0.101.

In the case of AGTTTATA, the “PBM E-score” value was -0.0115. As to ATGGCGTC, the “PBM E-score” value was -0.328. With CGAATTAA, the “PBM E-score” value turned out to be 0.00148. For AAACGTGC, the “PBM E-score” value is -0.176.

On to CCATGTCG, for which the “PBM E-score” value is -0.08. With AGCTTCCG, the “PBM E-score” value is -0.221. CCGGACCA: the “PBM E-score” value was -0.183. With ACAAGCCC, the “PBM E-score” value is -0.159.

For the sequence AAGTATAT, the “PBM E-score” value was -0.0325. Turning to ACTTGCGA, the “PBM E-score” value is 0.117. In the case of TAACGTTA, the “PBM E-score” value was found to be 0.0502. Consider ATTGATCC, for which the “PBM E-score” value is 0.0238. For AGAACTAG, the “PBM E-score” value was -0.041. In the case of TCGCGCGA, the “PBM E-score” value came to 0.108. On to AGATCCAA, for which the “PBM E-score” value was -0.114. As for CGAATACC, the figure is -0.129. As for CAAGTGCG, the figure is -0.0239; as for GGGTCGAA, 0.0364; as for AGGCCGGG, -0.225.

Consider AGATCTCC, for which the “PBM E-score” value was -0.057. To CGCAGAAG belongs -0.136.

Regarding ATACCGGA, the “PBM E-score” value came out at 0.0903. Consider CTATCGCA, for which the “PBM E-score” value was determined as 0.0247. To GCCTTGTA belongs -0.116. Regarding ATGTGACA, the “PBM E-score” value was -0.0107. As for CGTAGGTA, the figure is -0.186; as for CCCAATCA, 0.159. On to GAGCCACA, for which the “PBM E-score” value amounted to 0.107.

With CGCCAAAG, the “PBM E-score” value is -0.0708. For ATAGATTG, the “PBM E-score” value came to 0.025. On to AAACTCAC, for which the “PBM E-score” value was found to be 0.183. Consider ACGACTGC, for which the “PBM E-score” value was determined as 0.19. CTGTGCTA: the “PBM E-score” value was -0.0603. For the sequence CCCTCGCC, the “PBM E-score” value was -0.184.

As to CATGCCTA, the “PBM E-score” value is -0.0682. With AACCCTGA, the “PBM E-score” value stood at 0.155. TACAAACA: the “PBM E-score” value stood at 0.0972. As for TTGCCAAA, the figure is -0.0365; as for CTTATGCC, 0.00776; as for CACGCGCG, -0.0929. As for CCGGCACC, the figure is -0.131; as for ATCGATTG, 0.0826. To AACGCCAG belongs 0.029. On to GCAAGGGC, for which the “PBM E-score” value is -0.265.

For the sequence ACCTGTAG, the “PBM E-score” value was -0.12. On to CATCCCGG, for which the “PBM E-score” value is -0.195. Turning to ATAAGAGG, the “PBM E-score” value is 0.133. As for ACAAGAAG, the figure is 0.0447. Turning to ATGTGCCG, the “PBM E-score” value is -0.0965. As for GTGGCAGA, the figure is -0.238; as for CGAAATTA, 0.142. With GAACATGA, the “PBM E-score” value amounted to 0.149.

In the case of CCGCTTAC, the “PBM E-score” value came out at 0.026. For CTACCTGC, the “PBM E-score” value was -0.0946. For the sequence CACGACCA, the “PBM E-score” value was 0.0151. As to ATCCGAGA, the “PBM E-score” value was -0.00631. AGGTATAG: the “PBM E-score” value is -0.0533.

For the sequence CTGAACAC, the “PBM E-score” value is 0.0664. AGCCATCC: the “PBM E-score” value was 0.293.

For the sequence GCGTAGGA, the “PBM E-score” value is -0.0348. To CACAGCCA belongs 0.0242. To AGCTGGGA belongs -0.0804.

Regarding GAGTACCC, the “PBM E-score” value was 0.114.

Turning to CGCCCAGC, the “PBM E-score” value is -0.0899.

For AGGCCGTC, the “PBM E-score” value is -0.243.

For ATATTAAG, the “PBM E-score” value was found to be 0.167. As to GCAACGCC, the “PBM E-score” value was -0.229.

Consider AAATGACC, for which the “PBM E-score” value was -0.0187. For the sequence AACGGCCA, the “PBM E-score” value was -0.18.

Take CACTGGTC: the “PBM E-score” value is -0.0661.

For AAAACTTT, the “PBM E-score” value was -0.143. Take ACACGCGT: the “PBM E-score” value amounted to 0.169. As for GCGTCAAA, the figure is -0.15; as for CGGTTACC, 0.0378. For the sequence AGTTGCTC, the “PBM E-score” value was -0.166. As for CGAAACGC, the “PBM E-score” value is -0.112. Consider GAATGCCA, for which the “PBM E-score” value was -0.127. Take AGTAGCGG: the “PBM E-score” value came to 0.106. As to ATCCTTTC, the “PBM E-score” value is -0.011.
